According to PubChem BioAssay AID488969 (Vanderbilt High Throughput Screening Facility, 2010):
The full ranking holds about 110,000 compounds; the median of “z-score” is about -0.1, and the highest 2% start at about 2. The list shows a part of the results.

Each molecule was assayed against Metabotropic glutamate receptor 8 (Rattus norvegicus) (UniProt P70579) (assay: rat mGluR8 modulators via GIRK flux, primary screen, cell-based, thallium flux, HTS (AID 488969)). Conditions: HEK293 rat mGluR8, GIRK (G protein-gated inwardly rectifying potassium channel) thallium flux, FluoZin2; at 10 µM; stronger effect = higher value; submaximal glutamate (EC20) added with thallium.
Chain of UniProt P70579 (P70579 whole entry, looked up): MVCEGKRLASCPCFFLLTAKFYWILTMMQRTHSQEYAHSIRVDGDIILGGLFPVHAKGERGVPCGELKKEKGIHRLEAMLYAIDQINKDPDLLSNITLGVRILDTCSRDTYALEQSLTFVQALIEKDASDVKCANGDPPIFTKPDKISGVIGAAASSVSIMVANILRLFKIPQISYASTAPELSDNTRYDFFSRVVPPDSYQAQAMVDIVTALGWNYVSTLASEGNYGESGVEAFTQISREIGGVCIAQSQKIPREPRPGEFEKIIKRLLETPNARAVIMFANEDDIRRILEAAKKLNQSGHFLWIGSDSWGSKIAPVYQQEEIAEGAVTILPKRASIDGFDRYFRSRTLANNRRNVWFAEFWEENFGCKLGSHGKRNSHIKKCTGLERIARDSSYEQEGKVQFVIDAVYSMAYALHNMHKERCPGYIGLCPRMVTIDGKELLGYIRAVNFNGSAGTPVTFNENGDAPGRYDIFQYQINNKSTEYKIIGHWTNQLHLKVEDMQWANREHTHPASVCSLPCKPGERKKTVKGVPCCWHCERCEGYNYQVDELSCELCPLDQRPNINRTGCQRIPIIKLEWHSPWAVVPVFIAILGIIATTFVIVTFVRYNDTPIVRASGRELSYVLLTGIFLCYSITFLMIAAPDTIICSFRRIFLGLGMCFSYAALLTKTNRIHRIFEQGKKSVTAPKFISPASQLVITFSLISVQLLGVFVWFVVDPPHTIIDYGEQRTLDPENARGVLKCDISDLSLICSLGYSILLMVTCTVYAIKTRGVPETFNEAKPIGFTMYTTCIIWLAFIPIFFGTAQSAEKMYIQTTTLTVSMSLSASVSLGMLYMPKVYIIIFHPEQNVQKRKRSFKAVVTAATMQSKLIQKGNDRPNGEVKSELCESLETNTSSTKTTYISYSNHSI

**Q.** How did the z-score turn out when `CC1CN(C(=O)C2CCCN2S(=O)(=O)c2ccc(Cl)cc2)CC(C)O1` (stereo not given) was run?
**A.** The z-score was 0.21.

**Q.** How did the z-score turn out when `O=C(O)CC1NC(=S)N(c2ccccc2)C1=O` (stereo not given) was run?
**A.** Its z-score is 0.429.

**Q.** Which z-score does the source give for `O=C(Nc1nsc(-c2ccccc2)n1)c1ccncc1` here?
**A.** The z-score was -0.163.

**Q.** For `O=C(CCS(=O)(=O)c1ccc(Br)cc1)N1CCN(c2ccccc2Cl)CC1`, which z-score is on record?
**A.** Its z-score is 0.163.

**Q.** For `CN(Cc1n[nH]c(=S)n1C)S(=O)(=O)c1ccccc1`, which z-score is on record?
**A.** Its z-score is 0.0105.

**Q.** How did the z-score turn out when `C=CCN1C(=O)CSc2ccc(C(=O)N3CCC(C)CC3)cc21` was run?
**A.** Its z-score is -0.347.

**Q.** Which z-score does the source give for `Cc1cc(Cl)ccc1Oc1ncc(-c2ccc(Cl)cc2)cn1` here?
**A.** Its z-score is -0.0298.

**Q.** For `Cc1ccc2nc(SCC(=O)Nc3nnc(SCC(N)=O)s3)[nH]c2c1`, which z-score is on record?
**A.** Its z-score is -0.135.

**Q.** How did the z-score turn out when `CCOc1ccc(S(=O)(=O)Nc2ccc(S(=O)(=O)N3CCCCC3)cc2)cc1` was run?
**A.** Its z-score is -0.74.

**Q.** How did the z-score turn out when `O=C(Cn1c(CSc2ccccc2)nc2ccccc21)Nc1ccccc1` was run?
**A.** The z-score was -0.348.

**Q.** With `CCCCC(=O)Nc1cccc(NC(=S)NC(=O)C(C)C)c1` as the molecule, how does the z-score read?
**A.** The z-score was -0.287.

**Q.** For `O=C(c1ccc(Cl)s1)N1CCOCC1`, which z-score is on record?
**A.** The z-score was 0.143.

**Q.** Which z-score does the source give for `O=C(NCc1ccco1)c1cc2ccc(O)cc2oc1=O` here?
**A.** Its z-score is 0.307.

**Q.** How did the z-score turn out when `C/C=C/c1ccc(OCCOCCOc2cccc3cccnc23)c(OC)c1` was run?
**A.** The z-score was -0.356.

**Q.** For `CC(C)(Oc1ccc(Cl)cc1)C(=O)NC1CCSC1=O` (stereo not given), which z-score is on record?
**A.** Its z-score is -0.405.

**Q.** With `O=C(CC1SC(=NCCc2ccccc2)N(/N=C/c2cccs2)C1=O)Nc1ccc(Cl)cc1` (stereo not given) as the molecule, how does the z-score read?
**A.** Its z-score is 0.658.

**Q.** For `CC(=O)CCc1c(C)nc2ccc(C(=O)O)cc2c1Cl`, which z-score is on record?
**A.** The z-score was 0.493.

**Q.** For `O=[N+]([O-])c1ccccc1N/N=C\c1ccccc1Cl`, which z-score is on record?
**A.** Its z-score is -0.0268.

**Q.** How did the z-score turn out when `Cn1c(=O)[nH]c(=O)c2c1nc1n2CCCN1CCc1ccccc1` was run?
**A.** The z-score was 0.412.

**Q.** Which z-score does the source give for `CCCCn1c(=O)c2c(O)cc(=O)oc2c2ccccc21` here?
**A.** Its z-score is 1.03.

**Q.** With `COc1ccc(C2SCC(=O)N2C)cc1` (stereo not given) as the molecule, how does the z-score read?
**A.** Its z-score is -0.107.

**Q.** How did the z-score turn out when `Cc1ccccc1C(=O)N1CCC(C(=O)Nc2cccc(F)c2)CC1` was run?
**A.** Its z-score is 0.161.

**Q.** Which z-score does the source give for `CCc1noc(C)c1C(=O)Nc1sc(C(=O)N(C)C)c(C)c1C(=O)OC` here?
**A.** Its z-score is 0.608.

**Q.** With `Cc1nc2ccccc2c2oc(C(=O)N3CCc4ccccc4C3)cc12` as the molecule, how does the z-score read?
**A.** The z-score was -0.52.

**Q.** For `CSc1ccccc1NC(=O)c1ccoc1C`, which z-score is on record?
**A.** The z-score was -0.082.

**Q.** Which z-score does the source give for `CCN(CCNC(=O)c1cccc(N2CCCC2=O)c1)c1ccccc1` here?
**A.** The z-score was 0.476.

**Q.** How did the z-score turn out when `Cc1cc(NC(=O)c2cc(-c3ccncc3)nc3c(C)cccc23)no1` was run?
**A.** Its z-score is 0.312.

**Q.** Which z-score does the source give for `COc1ccc(S(=O)(=O)NCc2ccccn2)cc1Cl` here?
**A.** The z-score was 0.175.

**Q.** Which z-score does the source give for `COc1ccccc1-c1nnc(SCC(=O)Nc2ccc(S(N)(=O)=O)cc2)n1C` here?
**A.** The z-score was 0.221.

**Q.** Which z-score does the source give for `Cc1nnc2n(CCc3ccccc3)c(=O)c3c4c(sc3n12)CCCC4` here?
**A.** Its z-score is -0.258.

**Q.** For `CC(OC(=O)c1nc(-c2ccccc2)n(-c2ccccc2)n1)C(=O)Nc1cc(Cl)cc(Cl)c1` (stereo not given), which z-score is on record?
**A.** Its z-score is -0.303.

**Q.** With `CN(C)c1ccc(C(=O)OCC(=O)NC2CCCCC2)cc1` as the molecule, how does the z-score read?
**A.** The z-score was -0.263.

**Q.** `CC(NC(=O)c1ccc(Cl)cc1)c1nnc(SCc2ccc([N+](=O)[O-])cc2)n1C` (stereo not given) was tested. Which z-score did it give?
**A.** Its z-score is -0.159.

**Q.** With `O=C(OCc1ccc2c(c1)OCO2)c1cccc(S(=O)(=O)N2CCCCC2)c1` as the molecule, how does the z-score read?
**A.** Its z-score is -0.201.

**Q.** Which z-score does the source give for `O=C(COC(=O)CNC(=O)c1ccccc1F)NCCC1=CCCCC1` here?
**A.** Its z-score is -0.262.

**Q.** Which z-score does the source give for `CCOC(=O)C1CCCN(c2nc3ccccc3nc2C(C#N)C(=O)OC(C)COC)C1` (stereo not given) here?
**A.** Its z-score is -0.408.

**Q.** With `COc1ccc(-c2nnc(SCc3cccnc3)o2)cc1` as the molecule, how does the z-score read?
**A.** Its z-score is -0.339.

**Q.** `O=C(COc1ncnc2sccc12)N1CCc2ccccc2C1` was tested. Which z-score did it give?
**A.** Its z-score is 0.0441.

**Q.** With `CCCCNC(=O)COC(=O)c1cc(F)c(F)cc1Cl` as the molecule, how does the z-score read?
**A.** Its z-score is 0.143.

**Q.** How did the z-score turn out when `COc1ccc(-c2cc(=O)oc3cc(OCC(=O)c4cccc([N+](=O)[O-])c4)ccc23)cc1` was run?
**A.** Its z-score is 0.084.

**Q.** Which z-score does the source give for `CCOC(=O)c1[nH]c2ccccc2c1NC(=O)c1nonc1C` here?
**A.** Its z-score is -0.448.

**Q.** How did the z-score turn out when `CCCN1Cc2cccc(C(=O)N3CCN(c4ccc(F)cc4)CC3)c2C1=O` was run?
**A.** The z-score was -0.326.

**Q.** For `Cc1ccc2c(c1)c1c(n2C)-c2[nH]ncc2CC1`, which z-score is on record?
**A.** The z-score was 0.0356.

**Q.** `CC1CCCN(c2ccc(C(=O)NCc3ccc4c(c3)OCO4)cc2[N+](=O)[O-])C1` (stereo not given) was tested. Which z-score did it give?
**A.** The z-score was 0.508.

**Q.** How did the z-score turn out when `O=S(=O)(NCC(c1ccco1)N1CCN(c2ccc(F)cc2)CC1)c1ccc2c(c1)OCCO2` (stereo not given) was run?
**A.** Its z-score is -0.147.

**Q.** Which z-score does the source give for `CC(=O)c1ccc(-n2nnnc2SCC(=O)NNC(=O)c2ccco2)cc1` here?
**A.** The z-score was -0.102.

**Q.** `N/C(=N\OC(=O)Cc1cccc2ccccc12)c1ccccn1` was tested. Which z-score did it give?
**A.** Its z-score is 0.135.

**Q.** For `Cn1cc(S(=O)(=O)CC(=O)Nc2ccc3c(c2)OCCO3)c2ccccc21`, which z-score is on record?
**A.** The z-score was -0.578.

**Q.** Which z-score does the source give for `CC1Cc2ccccc2N1C(=O)CCNS(=O)(=O)c1ccc2c(c1)CCC(=O)N2` (stereo not given) here?
**A.** Its z-score is -0.0721.

**Q.** For `Cc1cc(C)c(C#N)c(Nc2ccccc2)n1`, which z-score is on record?
**A.** Its z-score is -0.364.

**Q.** Which z-score does the source give for `CC(C)(C)OC(=O)N1CCC(C(=O)N[C@H](Cc2ccccc2)C(=O)O)CC1` here?
**A.** Its z-score is -0.194.

**Q.** With `CN(C)S(=O)(=O)c1cccc(C(=O)Nc2cccnc2)c1` as the molecule, how does the z-score read?
**A.** The z-score was -0.903.

**Q.** With `N#Cc1c(SCc2ccccc2)nc(N2CCOCC2)c2c1CCCC2` as the molecule, how does the z-score read?
**A.** Its z-score is -0.279.

**Q.** Which z-score does the source give for `COc1ccc2nc(NC(=O)c3ccc(-n4nc(C)cc4C)cc3)sc2c1` here?
**A.** The z-score was 0.353.

**Q.** Which z-score does the source give for `CCc1nnc(NS(=O)(=O)c2ccc(NC(=S)NC(=O)/C=C/c3ccc(F)cc3)cc2)s1` here?
**A.** The z-score was -0.454.
